From EP4431525A1 (Anaveon AG, dated 2024)

T1: IL-2R on murine splenocytes (NK cells, CD8 T cells, Treg cells) (mouse, UniProt P01590 22-268; P16297 27-539; P34902 23-369)
T1 sequence (looked up) 1: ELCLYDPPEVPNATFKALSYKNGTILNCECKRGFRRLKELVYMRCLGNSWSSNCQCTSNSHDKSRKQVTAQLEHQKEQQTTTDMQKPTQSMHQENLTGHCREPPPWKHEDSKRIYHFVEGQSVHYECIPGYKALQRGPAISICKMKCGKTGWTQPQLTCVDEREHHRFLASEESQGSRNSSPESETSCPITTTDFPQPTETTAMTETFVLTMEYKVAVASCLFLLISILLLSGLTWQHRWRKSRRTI
T1 sequence (looked up) 2: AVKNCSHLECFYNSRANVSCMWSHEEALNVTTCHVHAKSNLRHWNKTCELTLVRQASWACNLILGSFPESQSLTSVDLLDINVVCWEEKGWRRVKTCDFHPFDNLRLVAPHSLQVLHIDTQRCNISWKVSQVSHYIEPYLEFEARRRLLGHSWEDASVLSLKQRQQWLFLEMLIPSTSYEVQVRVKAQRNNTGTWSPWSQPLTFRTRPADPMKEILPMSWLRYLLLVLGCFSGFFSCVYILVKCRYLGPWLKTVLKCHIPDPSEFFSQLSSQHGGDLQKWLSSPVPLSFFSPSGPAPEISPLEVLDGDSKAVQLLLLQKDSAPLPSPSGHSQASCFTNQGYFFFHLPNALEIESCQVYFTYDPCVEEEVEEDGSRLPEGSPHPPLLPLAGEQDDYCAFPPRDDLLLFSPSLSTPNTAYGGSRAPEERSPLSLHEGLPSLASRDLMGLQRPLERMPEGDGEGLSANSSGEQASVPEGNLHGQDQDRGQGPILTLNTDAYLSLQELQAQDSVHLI
T1 sequence (looked up) 3: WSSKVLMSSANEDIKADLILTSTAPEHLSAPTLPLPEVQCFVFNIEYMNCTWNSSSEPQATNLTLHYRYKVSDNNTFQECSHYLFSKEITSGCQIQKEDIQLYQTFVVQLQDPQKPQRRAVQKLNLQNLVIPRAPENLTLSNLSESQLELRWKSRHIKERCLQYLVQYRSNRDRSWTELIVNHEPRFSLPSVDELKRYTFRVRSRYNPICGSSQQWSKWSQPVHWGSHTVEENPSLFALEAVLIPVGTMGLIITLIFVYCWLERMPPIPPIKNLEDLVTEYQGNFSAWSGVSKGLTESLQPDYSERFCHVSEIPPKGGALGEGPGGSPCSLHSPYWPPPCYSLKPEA

T2: His-tagged recombinant CD25 (UniProt P01589 22-213, limits assumed)
T2 construct: also called IL-2R alpha chain
T2 sequence (looked up): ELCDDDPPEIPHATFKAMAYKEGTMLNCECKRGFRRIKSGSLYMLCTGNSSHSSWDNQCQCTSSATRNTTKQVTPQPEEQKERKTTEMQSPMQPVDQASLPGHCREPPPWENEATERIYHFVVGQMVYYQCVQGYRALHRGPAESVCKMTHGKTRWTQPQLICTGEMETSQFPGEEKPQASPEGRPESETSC

B1: QTY065 (other)
heavy: EVQLVQSGAEVKKPGESLKISCKGSGYAFTNYLIEWVRQMPGKGLEWMGVINPGSGGTNYNEKFKGQVTISADKSISTAYLQWSSLKASDTAMYYCARWRGEGYYAYFDVWGQGTTVTVSSASTKGPSVFPLAPSSKSTSGGTAALGCLVKDYFPEPVTVSWNSGALTSGVHTFPAVLQSSGLYSLSSVVTVPSSSLGTQTYICNVNHKPSNTKVDKRV[letters of human IgG1 Fc with changes left out]
light: AIRLTQSPSSFSASTGDRVTITCKASQSVDYGGGNFHLRPRDLISNINVIVLELKGSETTFMCEYADETATIVEFLNRWITFSQSIISTLTPTSSSTKKTQLQLEHLLLDLQMILNGINNYKNPKLTRMLTFKFYMPKKATELKHLQCLEEELKPLEEVLNLAQSKGGGGDSYMNWYQQKPGKAPKLLIYAASNLESGVPSRFSGSGSGTDFTLTISSLQSEDFATYYCQQSNEDPYTFGGGTKVEIKRTVAAPSVFIFPPSDEQLKSGTASVVCLLNNFYPREAKVQWKVDNALQSGNSQESVTEQDSKDSTYSLSSTLTLSKADYEKHKVYACEVTHQGLSSPVTKSFNRGEC
B2: BFC885 (other)
heavy: QVQLVESGGGVVQPGRSLRLSCAASGYTFSSYLIEWVRQAPGKGLEWVAVINPGSGGTNYADSVKGRFTISADKSKNTAYLQMNSLRAEDTAVYYCARWRGDGYYAYFDVWGQGTTVTVSSASTKGPSVFPLAPSSKSTSGGTAALGCLVKDYFPEPVTVSWNSGALTSGVHTFPAVLQSSGLYSLSSVVTVPSSSLGTQTYICNVNHKPSNTKVDKRV[letters of human IgG1 Fc with changes left out]
light: EIVLTQSPATLSVSPGERATLSCRASQSVSYGGGGSGGGGSGGGNFHLRPRDLISNINVIVLELKGSETTFMCEYADETATIVEFLNRWITFSQSIISTLTPTSSSTKKTQLQLEHLLLDLQMILNGINNYKNPKLTRMLTFKFYMPKKATELKHLQCLEEELKPLEEVLNLAQSKGGGGSGGGGSGGGGDSYMNWYQQKPGQAPRLLIYAASNLASGIPARFSGSGSGTEFTLTISSLQSEDAAVYYCQQSNEDPYTFGGGTKVEIKRTVAAPSVFIFPPSDEQLKSGTASVVCLLNNFYPREAKVQWKVDNALQSGNSQESVTEQDSKDSTYSLSSTLTLSKADYEKHKVYACEVTHQGLSSPVTKSFNRGECRTVAAPSVFIFPPSDEQLKSGTASVVCLLNNFYPREAKVQWKVDNALQSGNSQESVTEQDSKDSTYSLSSTLTLSKADYEKHKVYACEVTHQGLSSPVTKSFNRGEC
notes: Antibody B, IL-2CP in CDR-L1, linkers 13/14 AA

Assays:
[1] = biological target: T1, IL-2R on murine splenocytes (NK cells, …); assay: cell-based or functional assay
[2] = biological target: T1, IL-2R on murine splenocytes (NK cells, …); assay: cell-based or functional assay; remark: listed apart in the source
[3] = biological target: T2, His-tagged recombinant CD25; assay: SPR, His-CD25 captured

Row | Binder | EC50 CD8 cells (pSTAT5, mouse splenocytes) [1] | EC50 NK cells (pSTAT5, mouse splenocytes) [1] | EC50 Treg cells (pSTAT5, mouse splenocytes) [1] | EC50 pSTAT5 on CD8 cells (mouse splenocytes) [2] | EC50 pSTAT5 on NK cells (mouse splenocytes) [2] | EC50 pSTAT5 on Treg cells (mouse splenocytes) [2] | Kd [3]
1 | B1 | 4.6 nM | 1.2 nM | 5.91 nM | 17.9 nM | 2.88 nM | 4.21 nM | 
2 | B2 |  |  |  |  |  |  | 54.1 nM
